Results from PubChem BioAssay (NCATS).
Where “and” joins values, the source holds several entries; their conditions need not be identical. Equal values may be shown once. Inconclusive results, whose numbers are uncertain, are shown with a selection of clear calls. Potencies beside an inconclusive call are fits to weak or partial responses and may not hold up. Calls of active or inactive are those of the source. Calls follow the shape of the dose curve; as a rule, active = well fitted curve in the direction sought with a large enough effect; inconclusive = small, poorly fitted or top-dose-only effect, or another doubt; inactive = no such curve, though single readings can be large; an effect the other way counts as inactive or inconclusive.

Columns and labels:
[1] = qHTS of pediatric cancer cell lines to identify multiple opportunities for drug repurposing: Primary screen for A673 cells (AID 1347092); conditions: A673 Ewing sarcoma viability, CellTiter-Glo ATP luminescence, 48 h; activity change, negative = cytotoxic: at 46 µM (top of the series) unless noted; also: nearly all actives have a fitted effect of over 45% in size; as to activity change, negative = cytotoxic: % is scaled to controls: 0 for no effect and ±100 for the full control effect
Procedure, shortened: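 A673 cells (500-1,000 cells/well in growth media) were pre-incubated 5 h at 37 degrees C, then exposed to compounds for 48 h. Viability was read as CellTiter-Glo luminescence; concentration-response curves came directly from the primary screen.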

[2] = qHTS of pediatric cancer cell lines to identify multiple opportunities for drug repurposing: Primary screen for SK-N-MC cells (AID 1347093); conditions: SK-N-MC viability, CellTiter-Glo luminescence, 48 h; activity change, negative = cytotoxic: at 46 µM (top of the series);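 as to activity change, negative = cytotoxic: plate controls were DMSO neutral control for no effect and bortezomib for full effect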
Procedure, shortened: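 Metabolically active cells were quantified by ATP-dependent luminescence (CellTiter-Glo, 15 min at room temperature) following 48 h treatment. Cells had been plated at 500-1,000 per well and settled for 5 h beforehand.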

[3] = qHTS of pediatric cancer cell lines to identify multiple opportunities for drug repurposing: Primary screen for BT-37 cells (AID 1347094); conditions: BT-37 viability, CellTiter-Glo luminescence, 48 h; series mostly up to 57.3 µM
Procedure, shortened: (§1)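 Phenotypic viability qHTS, 48 h compound exposure, CellTiter-Glo luminescence read-out; multi-concentration dosing so that potency and efficacy derive directly from the primary screen's curves.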

[4] = qHTS of pediatric cancer cell lines to identify multiple opportunities for drug repurposing: Primary screen for NB-EBc1 cells (AID 1347095); conditions: NB-EBc1 neuroblastoma viability, CellTiter-Glo luminescence, 48 h; series mostly up to 46 µM
Procedure, shortened: as §1

[5] = qHTS of pediatric cancer cell lines to identify multiple opportunities for drug repurposing: Primary screen for Saos-2 cells (AID 1347097); conditions: Saos-2 viability, CellTiter-Glo ATP luminescence, 48 h; activity change, negative = cytotoxic: at 46 µM (top of the series); also: nearly all actives have a fitted effect of over 40% in size; as to activity change, negative = cytotoxic: % is scaled to controls: 0 for no effect and ±100 for the full control effect
Procedure, shortened: as §1

[6] = qHTS of pediatric cancer cell lines to identify multiple opportunities for drug repurposing: Primary screen for SK-N-SH cells (AID 1347098); conditions: SK-N-SH viability, CellTiter-Glo luminescence, 48 h; series mostly up to 57 µM; also: nearly all actives have a fitted effect of over 65% in size;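 as to activity change, negative = cytotoxic: DMSO served as neutral control and bortezomib at 2.3 µM as positive control; % is scaled to controls: 0 for no effect and ±100 for the full control effect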
Procedure, shortened: (§2)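 Cells (500-1,000/well) rested 5 h, then received compounds for 48 h; metabolically active cells were measured by CellTiter-Glo luminescence. Final concentrations spanned up to 46 µM (MIPE, 11-point) or 0.59 nM-46 µM (NPC, 8-point) in primary screens, 11-point in follow-ups.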

[7] = qHTS of pediatric cancer cell lines to identify multiple opportunities for drug repurposing: Primary screen for LAN-5 cells (AID 1347100); conditions: LAN-5 neuroblastoma viability, CellTiter-Glo luminescence, 48 h; activity change, negative = cytotoxic: at 46 µM (top of the series);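 as to activity change, negative = cytotoxic: plate controls were DMSO neutral control for no effect and bortezomib positive control for full effect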
Procedure, shortened: as §2

[8] = qHTS of pediatric cancer cell lines to identify multiple opportunities for drug repurposing: Primary screen for BT-12 cells (AID 1347101); conditions: BT-12 viability, CellTiter-Glo luminescence, 48 h; series mostly up to 57.3 µM; also: nearly all actives have a fitted effect of over 25% in size
Procedure, shortened: as §2

[9] = qHTS of pediatric cancer cell lines to identify multiple opportunities for drug repurposing: Primary screen for U-2 OS cells (AID 1347096); conditions: U-2 OS viability, CellTiter-Glo luminescence, 48 h; series mostly up to 46 µM; also: nearly all actives have a fitted effect of over 50% in size;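 as to activity change, negative = cytotoxic: plate controls were DMSO wells for no effect and bortezomib positive control wells for full effect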
Procedure, shortened: as §2

[10] = qHTS of pediatric cancer cell lines to identify multiple opportunities for drug repurposing: Primary screen for NB1643 cells (AID 1347099); conditions: NB1643 neuroblastoma viability, CellTiter-Glo luminescence, 48 h; series mostly up to 46 µM; also: nearly all actives have a fitted effect of over 50% in size;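 as to activity change, negative = cytotoxic: plate controls were DMSO neutral control for no effect and bortezomib positive control for full effect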
Procedure, shortened: as §1
Potency is read from the fitted curve at half-maximal effect; tags tell the direction and shape of the fitted curve.

Compound	Potency [1]	Potency [2]	Potency [3]	Potency [4]	Potency [5]	Potency [6]	Potency [7]	Potency [8]	Potency [9]	Potency [10]	activity change, negative = cytotoxic [7]	activity change, negative = cytotoxic [1]
O=c1c(-c2ccc(O)cc2)coc2cc(O)cc(O)c12	inconclusive: 14.8 µM [cytotoxic, partial curve] and inconclusive: 6.68 µM [cytotoxic, full curve, poor fit]	inconclusive: 33.5 µM [cytotoxic, partial curve, poor fit]	inconclusive: 34.3 µM [cytotoxic, single point] and inconclusive: 24.6 µM [cytotoxic, single point]	inconclusive: 26.4 µM [cytotoxic, single point] and active: 23.7 µM	inactive	inconclusive: 24.1 µM [cytotoxic, partial curve] and inconclusive: 27.3 µM [cytotoxic, single point]	inconclusive: 33.2 µM [cytotoxic, single point] and inconclusive: 21.1 µM [cytotoxic, single point]	inconclusive: 19.5 µM [cytotoxic, partial curve, poor fit]				
CO[C@H]1C[C@@H]2CC[C@@H](C)[C@@](O)(O2)C(=O)C(=O)N2CCCC[C@@H]2C(=O)O[C@H]([C@H](C)C[C@@H]2CC[C@H](OCCO)[C@H](OC)C2)CC(=O)[C@H](C)C=C(C)[C@@H](O)[C@@H](OC)C(=O)[C@H](C)C[C@H](C)C=CC=CC=C1C	active: 11.8 µM	inconclusive: 11.8 µM [cytotoxic, full curve, poor fit]	active: 10.9 µM		active: 3.32 µM	inconclusive: 19.2 µM [cytotoxic, partial curve]	inconclusive: 1.05 µM [cytotoxic, full curve, poor fit]	inconclusive: 21.7 µM [cytotoxic, partial curve]	inconclusive: 5.9 µM [cytotoxic, partial curve]			
Cc1ccc(F)c(NC(=O)Nc2ccc(-c3cccc4[nH]nc(N)c34)cc2)c1	active: 14.8 µM	active: 20.9 µM	inconclusive: 43.2 µM [cytotoxic, single point]				active: 20.9 µM	inconclusive: 34.3 µM [cytotoxic, single point]	inconclusive: 29.6 µM [cytotoxic, single point]			
O=C(NCc1ccccc1)c1csc(Nc2ccncn2)n1	active: 23.5 µM	active: 20.9 µM	active: 17.2 µM					active: 19.3 µM	inconclusive: 29.6 µM [cytotoxic, single point]			
Oc1cccc(-c2c3nc(c(-c4cccc(O)c4)c4ccc([nH]4)c(-c4cccc(O)c4)c4nc(c(-c5cccc(O)c5)c5ccc2[nH]5)CC4)C=C3)c1	inconclusive: 26.6 µM [cytotoxic, single point]	inconclusive: 33.5 µM [cytotoxic, single point]	inconclusive: 27.6 µM [cytotoxic, single point]	inconclusive: 29.9 µM [cytotoxic, single point]	inconclusive: 26.6 µM [cytotoxic, single point]	inconclusive: 38.6 µM [cytotoxic, single point]	inconclusive: 26.6 µM [cytotoxic, single point]	inconclusive: 30.9 µM [cytotoxic, single point]	inconclusive: 16.8 µM [cytotoxic, single point]	inconclusive: 29.9 µM [cytotoxic, single point]		
CCN(CC)c1ccc(C(=C2C=CC(=[N+](CC)CC)C=C2)c2cc(S(=O)(=O)O)ccc2S(=O)(=O)[O-])cc1	inconclusive: 21.1 µM [cytotoxic, single point]	inconclusive: 23.7 µM [cytotoxic, single point]	inconclusive: 17.4 µM [cytotoxic, partial curve]	inconclusive: 13.3 µM [cytotoxic, partial curve]			inconclusive: 26.6 µM [cytotoxic, single point]	inconclusive: 24.6 µM [cytotoxic, partial curve]	inconclusive: 13.3 µM [cytotoxic, partial curve]			
Cc1c(Nc2ncccc2C(=O)O)cccc1C(F)(F)F	inactive											
CCOC(=O)c1ccccc1O	active: 0.001 µM	inactive										
COc1cc(NC(C)CCCN)c2ncccc2c1 (stereo not drawn)	inconclusive: 26.6 µM [cytotoxic, single point]	inconclusive: 33.5 µM [cytotoxic, single point]	inconclusive: 27.6 µM [cytotoxic, single point]	inconclusive: 15 µM [cytotoxic, partial curve, poor fit]	active: 23.7 µM			inconclusive: 17.4 µM [cytotoxic, single point]	inconclusive: 26.6 µM [cytotoxic, single point]	inconclusive: 26.6 µM [cytotoxic, single point]		
CC(NCCC(c1ccccc1)c1ccccc1)c1ccccc1 (stereo not drawn)	inconclusive: 21.1 µM [cytotoxic, single point]	inconclusive: 33.5 µM [cytotoxic, single point]	inconclusive: 34.7 µM [cytotoxic, single point]	inconclusive: 29.9 µM [cytotoxic, single point]		active: 27.3 µM			inconclusive: 21.1 µM [cytotoxic, single point]	inconclusive: 26.6 µM [cytotoxic, single point]		
CNCc1ccc(-c2[nH]c3cc(F)cc4c3c2CCNC4=O)cc1	active: 4.69 µM	inconclusive: 37.2 µM [cytotoxic, single point]	inconclusive: 27.3 µM [cytotoxic, partial curve]	inconclusive: 33.2 µM [cytotoxic, single point]		inconclusive: 24.1 µM [cytotoxic, partial curve]	inconclusive: 20.9 µM [cytotoxic, partial curve]			inconclusive: 20.9 µM [cytotoxic, partial curve, poor fit]		
CC(C)C(=O)Nc1ncc(-c2cc(C(F)F)nn2-c2c(Cl)cccc2Cl)s1	inconclusive: 29.6 µM [cytotoxic, single point]	inconclusive: 29.6 µM [cytotoxic, single point]	inconclusive: 43.2 µM [cytotoxic, single point]		active: 18.7 µM			inconclusive: 27.3 µM [cytotoxic, partial curve]	inconclusive: 29.6 µM [cytotoxic, single point]	inconclusive: 18.7 µM [cytotoxic, partial curve, poor fit]		
Cc1cccc(Nc2nc(-c3ccncc3)cs2)c1	inconclusive: 37.2 µM [cytotoxic, single point]	inactive	inconclusive: 30.6 µM [cytotoxic, single point]	inconclusive: 33.2 µM [cytotoxic, single point]		inactive		inconclusive: 30.6 µM [cytotoxic, single point]	inactive		inconclusive: -35.1% [cytotoxic]	
O=C(CS)Nc1ccccc1	inconclusive: 26.6 µM [cytotoxic, single point]	inconclusive: 33.5 µM [cytotoxic, single point]			inconclusive: 29.9 µM [cytotoxic, single point]	inactive			inactive	inconclusive: 29.9 µM [cytotoxic, partial curve]		
Cn1ccc2cc3c(cc21)CCN3C(=O)Nc1cccnc1		inconclusive: 33.2 µM [cytotoxic, single point]			inconclusive: 16.4 µM [cytotoxic, partial curve]			inconclusive: 38.5 µM [cytotoxic, single point]				inconclusive: -31% [cytotoxic] [at 16.1 µM]
NC(=O)N/N=C/c1ccc([N+](=O)[O-])o1	inconclusive: 33.5 µM [cytotoxic, single point]	inconclusive: 30.6 µM [cytotoxic, single point]	inconclusive: 224 nM [cytotoxic, full curve] and inconclusive: 55 nM [cytotoxic, full curve]		inconclusive: 61.1 µM [cytotoxic, single point]		inconclusive: 27.3 µM [cytotoxic, partial curve, poor fit]	inconclusive: 28.2 µM [cytotoxic, single point] and inconclusive: 6.92 µM [cytotoxic, single point]		inactive		
CC(C)[C@H](CO)Nc1nc(Nc2ccc(C(=O)O)c(Cl)c2)c2ncn(C(C)C)c2n1	inconclusive: 37.2 µM [cytotoxic, single point]	inconclusive: 0.296 µM [cytotoxic, full curve]	inconclusive: 30.6 µM [cytotoxic, partial curve, poor fit]		active: 18.7 µM	inconclusive: 42.9 µM [cytotoxic, single point]	inconclusive: 37.2 µM [cytotoxic, single point]	inconclusive: 13.7 µM [cytotoxic, single point]				
